# According to ChEMBL document CHEMBL4888484, “Replenishing the malaria drug discovery pipeline: Screening and hit evaluation of the MMV Hit Generation Library 1 (HGL1) against asexual blood stage Plasmodium falciparum ,using a nano luciferase reporter read-out” (2022):
# Among all 150,000 compounds or so, about 540 (0.36%) showed an effect of 50% or more. Some of the results follow.
# Tested on: Plasmodium falciparum
# Assay: Primary screen in NF54 nanoGlo assay, in single point, at 2uM, 72h; a lower Z score goes with more inhibition
# Format: functional, Erythrocyte
# Conditions: timepoint 72 hour
Compound,% Inhibition,Z score
CCN(CC)Cc1ccc2c(c1)CN(C(=O)C1CCOCC1)CCO2,-13%,1.42
COC(=O)c1cc(O)cc(C(=O)N[C@H]2CN(C)C[C@@H]2OC)c1,-2%,0.26
CCCc1nc(C(=O)N2CC[C@H](c3cccnc3OC)C2)co1,-3%,0.51
COCCC(C)(C)CNC(=O)c1cccc(Cl)c1F,-8%,1.02
COc1ccc(Cn2ncnc2CCCn2cnnn2)cc1,-4%,0.79
COc1c(C)cnc(CN2CCC=C(CNC(C)=O)C2)c1C,8%,-1.08
COCCn1c(-c2ccc(Cl)cc2)cn2c(-c3ccccc3)c(-c3ccccc3)nc12,-2%,0.28
CCCCN(C)S(=O)(=O)N(c1ccc(OC)cc1)[C@H]1CCS(=O)(=O)C1,3%,-0.6
CC(C)c1csc([C@@H](C#N)C(=O)c2coc(C3CCCCC3)n2)n1,-2%,0.19
CC(C)CNC(=O)[C@@H]1COC2(CCCCC2)N1C(=O)c1cccc(Cl)c1,-11%,1.03
Clc1cccc(CNc2ncnc3c2nc2n3CCCCC2)c1,-1%,0.16
CCN1CCN(c2ncc(-c3cc(=O)[nH]c(N4CCN(Cc5ccccc5)CC4)n3)c(C)n2)CC1,3%,-0.36
O=C(CCCc1cn[nH]c1)N1CCCN(C(=O)c2ccccn2)CC1,2%,-0.27
O=C(c1ccccc1O)N1CCN(Cc2ccccn2)[C@@H]2CS(=O)(=O)C[C@@H]21,-3%,0.5
C[C@@H](Cn1ccnc1)NC(=O)COCC(F)(F)F,-23%,2.36
CCn1c(C(=O)NCCc2ccc(S(N)(=O)=O)cc2)c(N2CCCC2=O)c2cc(OC)ccc21,-7%,1.06
COc1cn(CC(=O)NC2CC2)c(CN2CCCCCC2)cc1=O,-4%,0.49
Cc1ccn2c(NC(=O)c3ccc4c5c([nH]c4c3)CCCC5)nnc2n1,-5%,0.87
CC(C)(C)c1ccn(C2(C(=O)O)CCN(C(=O)N3CCCCC3)CC2)n1,-8%,1.63
O=C(NCCc1ccc(-c2ccsc2)s1)C1CCC1,-1%,0.23
Cc1cnc(NC(=O)CN2CCOCC2)s1,-10%,1.17
Cc1ccccc1NC(=O)C1CC=CCC1C(=O)N(c1ccccc1)c1ccccc1 (stereo unspecified),-16%,2.98

Compound,% Inhibition,Z score
COC[C@H]1CN(C2CCC2)CC12CCN(C(=O)CCc1ccccc1)CC2,2%,-0.25
CC1C(C(=O)O)CCN1C(=O)C1CCCCCCC1 (stereo unspecified),1%,-0.06
Fc1ccccc1-c1cc(NCCCn2cnnc2)n2nccc2n1,10%,-1.82
CC(=O)Nc1ccc(-c2c(C(=O)Nc3ccc(C)cc3C)c(C)nc3sc(C(=O)NC4CCCC4)c(N)c23)cc1,4%,-0.67
CN1CCN(c2cnccn2)C[C@@]12CCC(=O)N(CC1CC1)CC2,-24%,4.18
Cc1oc2ncnc(N3CCC(C(=O)NCCN4CCOCC4)CC3)c2c1C,3%,-0.29
Cc1oc2ncn(C)c(=O)c2c1C(=O)N1CCCCCC1,-2%,0.36
COc1ccc([C@@H](C)NC(=O)N2CCC(c3ccco3)C2)c(OC)c1 (stereo partly specified),0%,0.08
O=C1NC2(CCOCC2)C(=O)N[C@@H]1c1ccccc1,-10%,1
CCCN1CC2(CCN(C(=O)c3snnc3CC)CC2)C[C@H]1C(=O)O,3%,-0.55
O=C(NCc1c[nH]nn1)c1ccsc1,-8%,1.37
CC[C@H]1CC[C@@H](C)N(C(=O)c2cn(C)nc2-c2cnn(C)c2)C1,-3%,0.34
CC(C)c1ncc(C(=O)N[C@H]2CC[C@@H]3CCC[C@@H]32)cn1,8%,-1.03
Cc1cc(Cn2nnc(C3CC3)n2)on1,15%,-1.85
O=C1NCCCc2cc(OCc3ncnn3CCF)ccc21,-12%,1.58
Oc1ccc2c(c1)OCCN(c1nc(C3CCCC3)ns1)C2,4%,-0.65
COCC1(c2noc([C@@H]3CCOC3)n2)CCCC1,5%,-0.64
C[C@@H](CS(C)(=O)=O)NCc1ccc(-c2ncon2)cc1,-6%,0.89
O=C(c1ccncc1F)N1CCN(c2ccccn2)C(=O)C1,9%,-1.19
CC1=NN(c2nc(C)cc(O)n2)C(=O)C1,37%,-4.79
COc1ccc(S(=O)(=O)N2CCOCC2)cc1NC(=O)Cc1c(C)nn(C)c1C,-2%,0.19
